# Data as given in PubChem BioAssay AID1347073 (National Center for Advancing Translational Sciences (NCATS), 2019).
# Screen size: about 45,000 compounds; about 200 (0.44%) were called active. Inconclusive results (about 7%) are left out. The call rests on the fitted dose curve; in most records, active means well fitted activation curve with a large enough effect; inconclusive means small, poorly fitted or top-dose-only effect; inactive means no such curve, though single readings can be large or run the other way. This is one part of the list.
# Assay: qHTS of TDP-43 Inhibitors: NCGC Sytravon Library Screen; further: nearly all actives have a fitted effect of over 55% in size; on growth rescue (activation): 0% is about no effect
# Conditions: yeast TDP-43 toxicity rescue, BacTiter-Glo growth, 24 h; series mostly up to 46.1 µM; growth rescue (activation): at the top concentration
# How it was run: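 TDP-43-expressing yeast, pregrown in raffinose, seeded at OD600 0.02 in galactose medium with compound for 24 hr at 30 deg C. Growth read by BacTiter-Glo luminescence, so rescue of toxicity appears as activation.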
# Potency means the concentration at half of the fitted maximal effect.
Compound,growth rescue (activation),Potency
O=C(NCCN1CCOCC1)c1cc(-c2cccc(O)c2)on1,inactive: 8.33%,
COc1cc(CNCc2ccccn2)ccc1OCc1ccc(Cl)cc1,inactive: 3.22%,
CC(C)Nc1nnc(SCc2cc(=O)n3ccsc3n2)s1,inactive: 15.7%,
CC(C)CCn1c(=O)c(C(=O)N/N=C/c2cccc(F)c2)c(O)c2ccccc21,inactive: -15.9%,
COCCNC(=O)C(=O)NCCN1CCNCC1,inactive: 5.8%,
Cc1nc(C(F)(F)F)ccc1C(=O)N1CCC1(C)C(=O)NS(=O)(=O)c1ccccc1 (stereo not given),inactive: 14%,
Cc1ccc(NC(=O)c2ccc(S(=O)(=O)NCc3cccnc3)cc2)cc1C,inactive: 12.7%,
CCCNC(=O)c1cc(C2CCCN(C(=O)C3CCCCC3)C2)on1 (stereo not given),inactive: 14.8%,
COc1ccc(NC(=O)N2CCCC(C(=O)Nc3cccc(C)c3C)C2)cc1 (stereo not given),inactive: -6.88%,
CC(=O)c1cccc(S(=O)(=O)NCC(C)(C)N2CCOCC2)c1,inactive: 1.29%,
O=C(NCCNC(=O)c1ccco1)c1ccco1,inactive: 13.8%,
O=C1CCCc2oc3c(cc(NS(=O)(=O)c4ccc5c6c(cccc46)C(=O)N5)c4ccccc43)c21,inactive: 22.3%,
O=c1cc(CN2CCCc3ccccc32)nc2sccn12,inactive: -11.4%,
CC(C)(C)c1ccc(COn2ccnc2)cc1,inactive: -2.4%,
Cc1cc(C(=O)CN2C(=O)NC3(CCCCCC3)C2=O)c(C)n1C,inactive: -13.9%,
Cc1cc(C(C)(C)C)oc1C(=O)O,inactive: 28%,
O=C(/C=C/c1cccc([N+](=O)[O-])c1)NCCSCc1ccco1,inactive: 25.3%,
O=C(CCS(=O)(=O)Cc1ccccc1)Nc1nnc(C(F)(F)F)s1,inactive: 9.99%,
CC1(C)Oc2ccc3ccc(=O)oc3c2/C(=C/NNC(N)=S)C1=O,inactive: 8.67%,
COc1ccc(C(=O)N[C@H](C(=O)Nc2ccc(OC)nc2)C(C)C)cc1,inactive: 10.7%,
O=C(NC(=S)Nc1ccc(Br)cc1F)C1CCCCC1,inactive: -1.27%,
CN(C)c1ccc(NC(=O)Nc2ccc3c(c2)c(=O)n(C)n3Cc2ccccc2)cc1,inactive: -6.18%,
Cc1ccc2c(Cl)cc(Cl)c(OCC(=O)NC3CCS(=O)(=O)C3)c2n1 (stereo not given),inactive: -2.78%,
CCC(=O)N1CCN(c2ccc(NC(=O)c3ccc(C#N)cc3F)cc2Cl)CC1,inactive: 0.999%,

Compound,growth rescue (activation),Potency
CCCc1cc(CNC(=O)C2CCC(=O)N(Cc3ccccc3F)C2)on1 (stereo not given),inactive: -4.06%,
Cc1ccc(-n2nnnc2SCC(=O)Nc2ccccc2N2CCCCC2)cc1C,inactive: 20.8%,
CCOc1ccccc1NC(=O)Cn1nnc(C(=O)Nc2ccccc2Cl)c1N,inactive: -2.2%,
O=C(COc1ccccc1Cl)NCCNC(=O)c1ccncc1,inactive: -13.7%,
CCCc1nc2ccc(NC(=O)c3cccs3)cc2c(=O)n1Cc1ccccc1Cl,inactive: 10.2%,
CCc1cccc(CC)c1NC(=O)CNCc1cccs1,inactive: -11.7%,
CN1C(=O)/C(=C/c2ccc(OCc3ccc(F)cc3)cc2)NC1=S,inactive: 13.7%,
O=C(CSc1nnc(-c2ccncc2)n1Cc1ccco1)Nc1ccccc1F,inactive: -15.6%,
Cc1cc(C)cc(NC(=O)C2C3C=CC4(O3)C2C(=O)N(CCCN2CCCCC2)C4C(=O)NC2CCCCC2)c1 (stereo not given),inactive: 13.5%,
O=C1CCCN1C(=O)CSc1nnnn1-c1cccc(F)c1,inactive: -1.63%,
COc1ccc(OCC(=O)N/N=C(\C)CC(=O)Nc2ccc(OC)cc2[N+](=O)[O-])cc1,inactive: -4.54%,
Cc1cc(C)n(-c2nnc(NCc3ccc(Cl)cc3)nn2)n1,inactive: 22.8%,
O=C(NNC(=O)C1CCCCC1)c1ccco1,inactive: -6.9%,
CCOC(=O)c1cc(NCc2cccs2)ccc1N1CCOCC1,inactive: 20.2%,
CCC(=O)N1CCc2cc(Br)cc(S(=O)(=O)NCCN3CCCC3)c21,inactive: 2.31%,
O=C(NCCCN1CCOCC1)C(=O)NCc1ccccc1Cl,inactive: 3.28%,
O=C1c2ccccc2NC(c2cccc(O)c2)N1c1ccccc1 (stereo not given),inactive: 6.43%,
CSc1ccccc1C(=O)NCCCn1ccnc1,inactive: -4.64%,
CCOC(=O)c1cc(-c2ccccc2)n(CC(=O)Nc2ccc(OC)cc2)c1C,inactive: 20%,
Cc1cc(S(=O)(=O)NCc2cccnc2)ccc1F,inactive: 2.54%,
Cc1cccc(N(CC(=O)N2CCN(C)CC2)S(=O)(=O)c2ccccc2)c1,inactive: -5.47%,
CCCCCCCC(=O)N1c2ccccc2NC(=O)C1CC(=O)Nc1ccc(C(=O)O)cc1 (stereo not given),inactive: -8.51%,
CC(NC(=O)c1ccc(S(=O)(=O)N(C)C)cc1)c1ccc(-n2ccnc2)cc1 (stereo not given),inactive: -6.41%,
NC(Cc1ccc(C(F)(F)F)cc1)c1csc(NC(=O)Nc2ccccc2Cc2ccccc2)n1 (stereo not given),inactive: 15.2%,

Compound,growth rescue (activation),Potency
CCCCOc1ccc(C(=O)N/C(=C/C=C/c2ccccc2)C(=O)NCCO)cc1,inactive: 2.01%,
CCOC(=O)Cn1ccc(NC(=O)COc2ccc(F)cc2)n1,inactive: 9.55%,
CCOC(=O)c1nn(-c2ccccc2)c(C#N)c1N,inactive: -7.6%,
Cc1ccc(-n2c(CSc3nc(C)cc(C)n3)nnc2SCC(=O)Nc2nccs2)cc1,inactive: 3.39%,
Cc1nc(N2CCCCC2)c(C#N)c(C)c1[N+](=O)[O-],inactive: 7.03%,
CC1(C)CC(O)C(CCC(O)c2ccccc2)C(C)(C)N1 (stereo not given),inactive: -12.4%,
COc1cc(CNc2ncnc3c2ncn3[C@H]2CN(CCc3ccccc3)C[C@@H](CO)O2)cc(OC)c1OC,inactive: -11.1%,
COC(=O)CNC(=O)C(Cc1c[nH]c2ccccc12)NC(=O)Oc1ccccc1 (stereo not given),inactive: 16.7%,
COC(=O)Cn1ncc2c3ccccc3n(C)c2c1=O,inactive: 22%,
CCOC(=O)C1CCCN(C(=O)c2ccc(Cl)c(S(=O)(=O)N3CCCCC3)c2)C1 (stereo not given),inactive: 13.8%,
CCN(CCn1cccn1)C(=O)c1cc(COc2ccccc2SC)on1,inactive: 29.3%,
COc1ccc(/C=C/C(=O)Nc2ccccc2C(F)(F)F)cc1,inactive: 18.7%,
CCCCC(=O)N(C)c1c(CC)nc2c(OCCC)cccn12,inactive: 2.64%,
CN(C)c1ccc(C(=S)Nc2ccccc2)cc1,inactive: 35.2%,
COC(=O)[C@@H]1CCCN1Cc1c(C(=O)N2CCCCC2)nc2c(C)cccn12,inactive: 1.82%,
Cc1ccc(C(C)C)c(OCC(=O)NN=C2CCCC(=O)C2)c1,inactive: 18.6%,
CC1CC(C)CN(C(=S)NC2CCCCC2)C1 (stereo not given),inactive: -3.68%,
CC(C)C(=O)N1CCN(c2ccccc2NC(=O)c2cccc3ccccc23)CC1,inactive: 20.7%,
C/C=C(\C)CN1CCC(n2nccc2NC(=O)CCCc2ccccc2)CC1,inactive: 17.8%,
COc1ccc(-c2ccc(C(=O)NC(C)C)c3occc23)c(C)c1,,active: 15.8 µM
COc1ccccc1-c1coc2c(CN3CCC(C)CC3)c(O)ccc2c1=O,inactive: 5.62%,
O=C(N/N=C/c1cccnc1)c1cc(-c2cccs2)nc2ccccc12,inactive: 10.3%,
